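Grown in 96-well plates, cells were treated for 48 hours with each compound at five concentrations. Insufficient inhibition: endpoint recorded as highest concentration tested. The concentration for 50% growth inhibition is given as GI50.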 Not every entry of the source has a single result; some have several. They are shown here; other results are not. An entry can have further records. For part of these data: A record mostly stands for its own series of concentrations, not given here; some values may only mark the edge of a range. Marks in square brackets tell the records apart. Letters hold for one entry only. For part of these data: Results that share an entry repeat one measurement in other runs, samples, wells, individuals or studies.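 At the TGI there is no net growth.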
Columns and labels:
Assay in all cases: NCI tumour cell line growth inhibition, 48 h
OVCAR-4 ovarian = system: OVCAR-4 ovarian
HT29 colon = system: HT29 colon
SNB-75 CNS = system: SNB-75 CNS
ACHN renal = system: ACHN renal
M14 melanoma = system: M14 melanoma
RPMI-8226 leukemia = system: RPMI-8226 leukemia
MDA-MB-435 = system: MDA-MB-435
SK-MEL-28 melanoma = system: SK-MEL-28 melanoma
CAKI-1 renal = system: CAKI-1 renal
MALME-3M melanoma = system: MALME-3M melanoma
HL-60(TB) leukemia = system: HL-60(TB) leukemia
SF-268 CNS = system: SF-268 CNS
EKVX NSCLC = system: EKVX NSCLC
SNB-19 CNS = system: SNB-19 CNS
BT-549 breast = system: BT-549 breast
HOP-62 NSCLC = system: HOP-62 NSCLC
NCI-H23 lung = system: NCI-H23 lung
HOP-92 NSCLC = system: HOP-92 NSCLC
COLO 205 colon = system: COLO 205 colon
SF-539 CNS = system: SF-539 CNS
U251 CNS = system: U251 CNS
NCI-H522 lung = system: NCI-H522 lung
SK-MEL-2 melanoma = system: SK-MEL-2 melanoma
SR leukemia = system: SR leukemia
HCT-15 colon = system: HCT-15 colon
MOLT-4 leukemia = system: MOLT-4 leukemia
LOX IMVI melanoma = system: LOX IMVI melanoma
A549 NSCLC = system: A549 NSCLC
XF 498 CNS = system: XF 498 CNS
NCI-H460 lung = system: NCI-H460 lung
OVCAR-5 ovarian = system: OVCAR-5 ovarian
UACC-62 melanoma = system: UACC-62 melanoma
SF-295 CNS = system: SF-295 CNS
KM12 colon = system: KM12 colon
HCT-116 colon = system: HCT-116 colon
786-0 renal = system: 786-0 renal
OVCAR-8 ovarian = system: OVCAR-8 ovarian
HCC-2998 colon = system: HCC-2998 colon
UACC-257 melanoma = system: UACC-257 melanoma
OVCAR-3 ovarian = system: OVCAR-3 ovarian

## CC[C@@]1(O)C(=O)OCc2c1cc1n(c2=O)Cc2cc3cc4c(cc3nc2-1)OCO4
OVCAR-4 ovarian
  TGI: 600 nM and > 100 µM
HT29 colon
  TGI: 550 nM and > 51.2 µM
SNB-75 CNS
  TGI: 8.93 nM and 10.8 µM
ACHN renal
  TGI: 1.71 nM and 102 nM
M14 melanoma
  TGI: 4.39 nM and 247 nM
RPMI-8226 leukemia
  GI50: 6.43 nM and 78.7 nM
  TGI: 262 nM and > 100 µM
MDA-MB-435
  TGI: 166 nM and > 100 µM
SK-MEL-28 melanoma
  TGI: 554 nM and > 100 µM
CAKI-1 renal
  TGI: 27.4 nM and 12.7 µM
MALME-3M melanoma
  TGI: 30.7 nM and 2.93 µM
HL-60(TB) leukemia
  TGI: 2.93 nM and > 100 µM
SF-268 CNS
  TGI: 29.6 nM and 407 nM
EKVX NSCLC
  TGI: 2.46 µM and > 100 µM
SNB-19 CNS
  TGI: 1.87 µM and 34.1 nM
BT-549 breast
  TGI: 755 nM and 19.6 nM
HOP-62 NSCLC
  TGI: 9.64 nM and 144 nM
NCI-H23 lung
  TGI: 4.5 nM and 82.2 nM

## Cc1cccc(/C=N/NC(=S)N2CCCC2)n1
HOP-92 NSCLC
  TGI: 7.66 µM and > 100 µM
COLO 205 colon
  TGI: 1.76 µM and > 100 µM
SF-539 CNS
  TGI: 5.06 µM and > 58.3 µM

## [Cl][Sn]([c]1ccccc1)([c]1ccccc1)[c]1ccccc1
HOP-92 NSCLC
  TGI: 401 nM [sample A, 1 test] and 288 nM, 38.3 nM [sample B, 1 test]
OVCAR-4 ovarian
  GI50: 198 nM [sample A, 1 test] and 27.7 nM, 14.6 nM [sample B, 1 test]
  TGI: 552 nM [sample A, 1 test] and 80.4 nM, 45.1 nM [sample B, 1 test]
HT29 colon
  GI50: 209 nM [sample A, 1 test] and 38 nM, < 10 nM [sample B, 1 test]
  TGI: 372 nM [sample A, 1 test] and 137 nM, 23.2 nM [sample B, 1 test]
U251 CNS
  GI50: 183 nM [sample A, 1 test] and 15.5 nM [sample B, 1 test]
  TGI: 355 nM [sample A, 1 test] and 33.4 nM [sample B, 1 test]
NCI-H522 lung
  GI50: 201 nM [sample A, 1 test] and 15.2 nM [sample B, 1 test]
  TGI: 408 nM [sample A, 1 test] and 35.6 nM [sample B, 1 test]
SK-MEL-2 melanoma
  GI50: 241 nM [sample A, 1 test] and 72 nM, 22.1 nM [sample B, 1 test]
SNB-75 CNS
  GI50: 294 nM [sample A, 1 test] and 34.7 nM, 20.2 nM [sample B, 1 test]
  TGI: 1.63 µM [sample A, 1 test] and 178 nM, 108 nM [sample B, 1 test]
SR leukemia
  GI50: 278 nM [sample A, 1 test] and 37.7 nM, 10.6 nM [sample B, 1 test]
ACHN renal
  TGI: 526 nM [sample A, 1 test] and 121 nM, 52.2 nM [sample B, 1 test]
HCT-15 colon
  GI50: 216 nM [sample A, 1 test] and 23.9 nM, 13 nM [sample B, 1 test]
  TGI: 506 nM [sample A, 1 test] and 68.1 nM, 30.4 nM [sample B, 1 test]
M14 melanoma
  GI50: 219 nM [sample A, 1 test] and 41.9 nM, 18.2 nM [sample B, 1 test]
  TGI: 530 nM [sample A, 1 test] and 147 nM, 41.6 nM [sample B, 1 test]
MOLT-4 leukemia
  GI50: 305 nM [sample A, 1 test] and < 10 nM [sample B, 1 test]
  TGI: 984 nM [sample A, 1 test] and 49.5 nM [sample B, 1 test]
RPMI-8226 leukemia
  GI50: 271 nM [sample A, 1 test] and 37.8 nM, < 10 nM [sample B, 1 test]
  TGI: 952 nM [sample A, 1 test] and 295 nM, 25.3 nM [sample B, 1 test]
LOX IMVI melanoma
  GI50: 175 nM [sample A, 1 test] and 32.6 nM, 13.6 nM [sample B, 1 test]
  TGI: 375 nM [sample A, 1 test] and 124 nM, 28.1 nM [sample B, 1 test]
A549 NSCLC
  GI50: 189 nM [sample A, 1 test] and 53.7 nM, 18 nM [sample B, 1 test]
COLO 205 colon
  GI50: 210 nM [sample A, 1 test] and 34.2 nM, 15.7 nM [sample B, 1 test]
  TGI: 412 nM [sample A, 1 test] and 111 nM, 38.4 nM [sample B, 1 test]
CAKI-1 renal
  GI50: 220 nM [sample A, 1 test] and 32 nM, 19.7 nM [sample B, 1 test]
  TGI: 849 nM [sample A, 1 test] and 151 nM, 80.5 nM [sample B, 1 test]
XF 498 CNS
  GI50: 103 nM and < 10 nM
  TGI: 224 nM and 17.9 nM
MALME-3M melanoma
  GI50: 265 nM [sample A, 1 test] and 180 nM, 21.5 nM [sample B, 1 test]
  TGI: 584 nM [sample A, 1 test] and 362 nM, 53.3 nM [sample B, 1 test]
NCI-H460 lung
  GI50: 228 nM [sample A, 1 test] and 17.1 nM, 23 nM [sample B, 1 test]
  TGI: 551 nM [sample A, 1 test] and 33.3 nM, 50.4 nM [sample B, 1 test]
HL-60(TB) leukemia
  GI50: 362 nM [sample A, 1 test] and 29.4 nM [sample B, 1 test]
OVCAR-5 ovarian
  GI50: 186 nM [sample A, 1 test] and 137 nM, 12.3 nM [sample B, 1 test]
SF-268 CNS
  GI50: 247 nM [sample A, 1 test] and 34.3 nM, 22.2 nM [sample B, 1 test]
  TGI: 713 nM [sample A, 1 test] and 110 nM, 61.7 nM [sample B, 1 test]
UACC-62 melanoma
  GI50: 226 nM [sample A, 1 test] and 106 nM, 15.9 nM [sample B, 1 test]
  TGI: 597 nM [sample A, 1 test] and 239 nM, 46.5 nM [sample B, 1 test]
EKVX NSCLC
  GI50: 248 nM [sample A, 1 test] and 93.3 nM, 24.3 nM [sample B, 1 test]
SF-295 CNS
  GI50: 367 nM [sample A, 1 test] and 160 nM, 26.6 nM [sample B, 1 test]
  TGI: 1.31 µM [sample A, 1 test] and 320 nM, 63.3 nM [sample B, 1 test]
KM12 colon
  GI50: 189 nM [sample A, 1 test] and 17.9 nM, 10.7 nM [sample B, 1 test]
  TGI: 363 nM [sample A, 1 test] and 40.7 nM, 28.4 nM [sample B, 1 test]
HCT-116 colon
  GI50: 181 nM [sample A, 1 test] and 15.4 nM, < 10 nM [sample B, 1 test]
  TGI: 369 nM [sample A, 1 test] and 32 nM, 18.3 nM [sample B, 1 test]
786-0 renal
  GI50: 170 nM [sample A, 1 test] and 17.6 nM, 10.8 nM [sample B, 1 test]
  TGI: 360 nM [sample A, 1 test] and 37.6 nM, 23.3 nM [sample B, 1 test]
OVCAR-8 ovarian
  GI50: 289 nM [sample A, 1 test] and 147 nM, 15.2 nM [sample B, 1 test]
  TGI: 934 nM [sample A, 1 test] and 366 nM, 29.1 nM [sample B, 1 test]
HCC-2998 colon
  GI50: 247 nM [sample A, 1 test] and 16.3 nM [sample B, 1 test]
  TGI: 492 nM [sample A, 1 test] and 35.1 nM [sample B, 1 test]
UACC-257 melanoma
  GI50: 380 nM [sample A, 1 test] and 122 nM, 24.8 nM [sample B, 1 test]
  TGI: 1.48 µM [sample A, 1 test] and 259 nM, 82.2 nM [sample B, 1 test]
OVCAR-3 ovarian
  GI50: 182 nM [sample A, 1 test] and 19.7 nM, 13.1 nM [sample B, 1 test]

— PubChem BioAssay (NCI)
